Among all 350,000 compounds or so, about 9,900 (2.8%) were called active. Inconclusive results, whose numbers are uncertain, are shown with a selection of clear calls. Calls follow the shape of the dose curve; as a rule, active = well fitted activation curve with a large enough effect; inconclusive = small, poorly fitted or top-dose-only effect; inactive = no such curve, though single readings can be large or run the other way. Potencies of inconclusive entries are left out as doubtful fits.
assay: A quantitative high throughput screen for small molecules that induce DNA re-replication in MCF 10a normal breast cells.; also: nearly all actives have a fitted effect of over 50% in size; conditions: MCF 10A DNA re-replication, Hoechst nuclear intensity, 48 h; series mostly up to 46.1 µM
Potency is read from the fitted curve at half-maximal effect; tags tell the direction and shape of the fitted curve.

Question: For Nc1ccc(S(=O)(=O)NNC(=O)C(=O)NNc2ccccc2)cc1, which Potency is on record?
Answer: inconclusive [activator, partial curve]

Question: With Cc1nn(CC(O)CN2c3ccccc3Sc3ccccc32)c(C)c1Br (centres undefined) as the molecule, how does the Potency read?
Answer: inconclusive [activator, single point]

Question: For CCc1ccccc1NC(=O)Nc1ccc(F)cc1F, which Potency is on record?
Answer: inactive

Question: For O=C1C=C(NNC(=O)c2ccccc2Br)CCC1, which Potency is on record?
Answer: inactive

Question: Which Potency does the source give for Cc1ccc(N(CC(=O)Nc2ccc(F)c(Cl)c2)S(=O)(=O)c2c(C)noc2C)cc1 here?
Answer: active: 11.6 µM

Question: With CC1CCCN1c1ccnc2cc(Cl)ccc12 (centres undefined) as the molecule, how does the Potency read?
Answer: inconclusive [activator, single point]

Question: Which Potency does the source give for CC1CCCN(S(=O)(=O)c2csc(C(N)=O)c2)C1 (centres undefined) here?
Answer: inconclusive [activator, partial curve, poor fit]

Question: Which Potency does the source give for Cc1cc(-n2c(C)cc(C(=O)CSc3nnnn3-c3ccc(Cl)cc3)c2C)no1 here?
Answer: active: 6.51 µM

Question: For COc1ccc(C(=O)CSC#N)cc1OC, which Potency is on record?
Answer: inconclusive [activator, single point]

Question: With CCNC(=S)Nc1ccc(Cl)c([N+](=O)[O-])c1 as the molecule, how does the Potency read?
Answer: inconclusive [activator, partial curve, poor fit]

Question: For COC(=O)c1ccc(Cn2nc([N+](=O)[O-])c(Br)c2C)cc1, which Potency is on record?
Answer: inconclusive [activator, single point]

Question: For Cc1cccc(NCCC(=O)c2ccc([N+](=O)[O-])cc2)c1C, which Potency is on record?
Answer: inconclusive [activator, single point]

Question: With COc1ccc(NC(C)=O)cc1NC(C)C(=O)Nc1ccc(S(=O)(=O)N2CCCCC2)cc1 (centres undefined) as the molecule, how does the Potency read?
Answer: inconclusive [activator, single point]

Question: For NC(=O)CC(NC(=O)Cc1cccc2ccccc12)c1ccc(NCCc2ccccc2F)c([N+](=O)[O-])c1 (centres undefined), which Potency is on record?
Answer: inconclusive [activator, single point]

Question: For N/C(=N\OC(=O)CC1CCCCC1)c1ccc(Cl)cc1, which Potency is on record?
Answer: inconclusive [activator, single point]

Question: With Cc1cccc(NS(=O)(=O)c2ccc(C)c(C(=O)OCC(=O)Nc3cc(C)on3)c2)c1 as the molecule, how does the Potency read?
Answer: inconclusive [activator, full curve, poor fit]

Question: With COc1ccc(-n2c(C)cc(C(=O)COC(=O)c3ccc(O)cc3O)c2C)cc1 as the molecule, how does the Potency read?
Answer: inconclusive [activator, single point]

Question: For CCOC(=O)C(=O)NNc1ccccc1C, which Potency is on record?
Answer: inconclusive [activator, single point]

Question: With CC(=O)Nc1ccc2c(c1)c1ccccc1n2C(C)=O as the molecule, how does the Potency read?
Answer: inconclusive [activator, partial curve, poor fit]

— PubChem BioAssay AID624296 (National Center for Advancing Translational Sciences (NCATS), 2012)
